Test results: the supplement of paper PMC4166925
± gives the standard deviation of the averaged measurements. In all, about 33,000 sequences were measured (“E-score (dimensionless, -0.5 to 0.5)”: median about -0.046, highest 2% from about 0.36 on). The list shows a part of the results.

Each sequence was assayed on T1, SpTbr T-box DNA-binding domain (GST fusion) (assay: PBM E-score of 8-mer (E-score (dimensionless, -0.5 to 0.5)); Tbr is Tbrain of the sea star Patiria miniata (Pm) or the sea urchin Strongylocentrotus purpuratus (Sp); higher = stronger binding preference; most listed sequences are background and not binding sites). Details: the construct has about 5 more residues each side.
T1 sequence: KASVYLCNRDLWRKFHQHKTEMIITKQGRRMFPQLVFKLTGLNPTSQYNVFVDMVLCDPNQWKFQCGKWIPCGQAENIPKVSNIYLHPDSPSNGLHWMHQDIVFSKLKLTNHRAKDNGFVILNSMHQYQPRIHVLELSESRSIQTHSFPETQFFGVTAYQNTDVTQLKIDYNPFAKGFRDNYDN
Method in brief: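 Primer extension turned Universal Agilent oligonucleotide arrays double-stranded. They were incubated with 200 nM protein in PBS (pH 7.5); the protein was a GST-fused Tbr T-box DNA-binding domain expressed in BL21 E. coli at 20 °C and purified on glutathione. Every ungapped 8-mer was scored from the scanned, quantified probe intensities, and the Universal PBM Analysis Suite gave each an enrichment E-score averaged over duplicate arrays.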

Point of comparison: ATGCAGTG, “PBM E-score of 8-mer” value -0.038 ± 0.026. Against it:
- CTGATAAG — within error, -0.0825 ± 0.038
- CAATTAGC — within error, -0.00923 ± 0.072
- CCGTCATA — higher, 0.0436 ± 0.0011
- ACACTTTA — higher, 0.324 ± 0.043
- ACGTCGAT — higher, 0.0227 ± 0.016
- ACTAACTC — within error, -0.077 ± 0.047
- ACTTGTCT — higher, 0.0811 ± 0.037
- ATTCTCCA — within error, -0.0182 ± 0.053
- AGACGGGA — within error, -0.0612 ± 0.086
- CCCCCACA — within error, -0.0123 ± 0.15
- CCACGCCC — higher, 0.0644 ± 0.011
- CTGCCGAC — higher, 0.108 ± 0.02
- ACATAAAA — higher, 0.0349 ± 0.044
- AAATCAGA — lower, -0.217 ± 0.051
- CAACCTGG — higher, 0.0493 ± 0.039
- CCCCGGAA — within error, -0.115 ± 0.052
- ATCTTTCG — within error, -0.0388 ± 0.014
- AACAGTGG — higher, 0.016 ± 0.025
- CCTACCCC — lower, -0.191 ± 0.043
- GATAGTAC — within error, -0.0487 ± 0.028
- GTGCTGGA — within error, -0.0318 ± 0.049
- CAGGCACA — higher, 0.166 ± 0.047
- CTAGATGA — lower, -0.231 ± 0.044
- AGAGGTGC — higher, 0.394 ± 0.014
- GAGGTTTA — within error, -0.0525 ± 0.082
- GTAATAAC — within error, -0.074 ± 0.074
- ACGCTAAC — higher, 0.253 ± 0.015
- GCGACCGC — higher, 0.151 ± 0.04
- ATGCCGGC — lower, -0.17 ± 0.081
- GCAAGATA — within error, -0.0343 ± 0.043
- CCTGTGGA — within error, -0.0237 ± 0.047
- GTAGCAGA — lower, -0.142 ± 0.023
- CCCCCAAC — higher, 0.0527 ± 0.0089
- ACCCCGCG — higher, 0.21 ± 0.0021
- AAGGAAGC — within error, -0.0905 ± 0.043
- TAGAACCA — lower, -0.141 ± 0.074
- GACGCCAC — higher, 0.196 ± 0.066
- ATCGGACC — lower, -0.225 ± 0.061
- AAGCGTTA — higher, 0.161 ± 0.089
- ATTTAGAG — within error, -0.163 ± 0.16
- GCCCTTCC — lower, -0.0891 ± 0.017
- CAATTTGC — within error, 0.0958 ± 0.14
- ACCTCAGT — higher, 0.119 ± 0.043
- AGTGAGTC — higher, 0.0547 ± 0.03
- CCTCAAAG — within error, -0.0502 ± 0.041
- AGCAGTGA — within error, 0.013 ± 0.096
- AGGGTCGA — within error, -0.0496 ± 0.012
- AACTGTCT — higher, 0.104 ± 0.0095
- CCGTTTAG — within error, -0.0242 ± 0.015
- ATGGTGGA — lower, -0.346 ± 0.005
- GCTGGTCA — within error, -0.00922 ± 0.032
- ATATGCAG — higher, 0.0798 ± 0.037
- AGTCTACA — lower, -0.0855 ± 0.012
- CAACTGTG — higher, 0.251 ± 0.031
- AGGGGGCG — higher, 0.0912 ± 0.057
- ATACTCAA — lower, -0.179 ± 0.05
- CTCCAACA — higher, 0.138 ± 0.023
- CATACGAC — within error, -0.083 ± 0.046
- CATTAGGC — within error, -0.0383 ± 0.089
- AGTTCAAC — higher, 0.0179 ± 0.028
- CATGCCGA — lower, -0.124 ± 0.041
- CTCTATAC — lower, -0.255 ± 0.095
- AGCGCTAA — higher, 0.3148 ± 0.0026
- AAGTTAAG — lower, -0.288 ± 0.047
- ATTAGTGG — higher, 0.0734 ± 0.019
- ACCGTTTA — within error, 0.00252 ± 0.042
- CAATCCCC — lower, -0.142 ± 0.016
- AGACCTAA — within error, -0.0799 ± 0.046
- TCTAGAAA — within error, -0.0958 ± 0.045
- TAATACGA — lower, -0.131 ± 0.044
- GGACTCCC — lower, -0.203 ± 0.009
- AAATACAG — within error, -0.0946 ± 0.035
- GATATGAC — lower, -0.0904 ± 0.026
- AATGTGGT — higher, 0.0565 ± 0.051
- CGGACTCA — within error, -0.0648 ± 0.1
- TAACAAGA — higher, 0.0533 ± 0.063
- AATAACCC — within error, -0.109 ± 0.11
- AATTCGCT — within error, -0.0718 ± 0.05
- AGCGTGAG — higher, 0.28 ± 0.05
- ACCTTCCA — higher, 0.0669 ± 0.013
- AGGGCTTA — lower, -0.209 ± 0.034
- ACGACCTA — higher, 0.0969 ± 0.063
- CGTCACTC — higher, 0.232 ± 0.011
- TCACGCAA — higher, 0.32 ± 0.023
- AGGGGCTA — within error, -0.079 ± 0.035
